Test results: the supplement of paper PMC4723716
± gives the uncertainty stated by the source. Over roughly 9,900 compounds, “viability index relative to DMSO control” has its median near 1; the lowest 2% begin near 0.85. The list shows a part of the results.

System: Plasmodium falciparum NF54 stage V gametocytes
Assay: viability index relative to DMSO control (fraction); higher = less gametocyte killing
Settings: 2.5 µM, incubation time: 72 h
Summary of the method: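 In 1,536-well plates, 10 µl of serum-free medium holding P. falciparum NF54 stage V gametocytes (0.75% gametocytemia, 1.25% hematocrit) received compound at 2.5 µM for 72 hr at 37°C in low oxygen. After one to two hours with 3 µl of 2.5 µM MitoTracker Red CMXRos containing 0.13% saponin, red particles of 20–70 µm2 were counted in a single field per well. Viability index is reported as the particle count over the plate mean of wells treated with solvent only.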

[1] = library set: Broad Institute DOS

SMILES	viability index [1]	viability index (library set: Broad Institute Blood Stage)
CN1C[C@@H]2[C@H](c3ccccc31)[C@@H](CO)N2S(=O)(=O)c1ccccc1	0.969 ± 0.059	
COc1ccc2c3c([nH]c2c1)[C@@H](CO)N(C[C@]31CN(C1)C(=O)c1cccnc1)C(=O)CN(C)C	1.06 ± 0.074	
O=C(C[C@@H]1CC[C@@H]2NC[C@@H](O)COC[C@H]2O1)NCCc1ccncc1	0.998 ± 0.085	
O=C(Nc1ccc(-c2ccccc2)cc1)[C@@H]1[C@@H](CO)[C@@H]2Cn3c(cccc3=O)[C@@H]2N1CC1CCOCC1	0.931 ± 0.11	
CCN(C[C@H]1[C@H](c2ccccc2)[C@@H](CO)N1CC1CC1)C(=O)c1ccccn1	1.06 ± 0.0024	
COCC(=O)Nc1ccc2c(c1)OC[C@H](C)N(C)C[C@H](C)[C@H](OC)CN(C)C2=O	1.08 ± 0.012	
COc1cccc(NC(=O)C[C@H]2CC[C@@H]3[C@H](COc4ccc(NC(=O)C5CC5)cc4C(=O)N3C)O2)c1	1.15 ± 0.12	
C[C@H](CO)N1C[C@H](C)[C@H](CN(C)C(=O)Cc2ccccn2)Oc2ncc(-c3cccc(C(=O)N(C)C)c3)cc2C1=O	1.07 ± 0.12	
C[C@H]1CN([C@@H](C)CO)C(=O)c2cc(C#CC3(O)CCCC3)cnc2O[C@H]1CN(C)S(=O)(=O)c1cccc(F)c1	1.13 ± 0.062	
CO[C@H]1CN(C)C(=O)c2ccc(NC(=O)Nc3ccccc3Cl)cc2OC[C@@H](C)NC[C@@H]1C	1.036 ± 0.0033	
C/C=C/c1ccc([C@@H]2[C@@H](CO)N3C(=O)CN(C(=O)c4ccncc4)C[C@H]23)cc1	0.96 ± 0.021	
C[C@@H]1CN([C@H](C)CO)C(=O)c2c(c3ccccc3n2C)-c2ccccc2CO[C@@H]1CN(C)S(=O)(=O)c1ccc([N+](=O)[O-])cc1	0.933 ± 0.0098	
O=C(C[C@@H]1CC[C@H]2[C@@H](COC[C@@H](O)CN2CCC(F)(F)F)O1)NCc1ccc2c(c1)OCO2	1.051 ± 0.0041	
CC(C)C#Cc1ccc([C@@H]2[C@H](CO)N3C(=O)CN(C(=O)Cc4ccccc4)C[C@@H]23)cc1	1.1 ± 0.016	
COc1ccc(C[C@H]2CCn3cc(nn3)COC[C@H](C)NC2=O)cc1	0.976 ± 0.055	
CC(=O)N1[C@@H]2Cn3c(ccc(-c4cccnc4)c3=O)[C@H]1[C@@H](C(=O)NC1Cc3ccccc3C1)[C@@H]2CO	1.11 ± 0.013	
CCCNC(=O)N1C[C@@]2(C1)CN([C@H](CO)c1c2c2ccc(OC)cc2n1C)S(C)(=O)=O	0.962 ± 0.02	
CS(=O)(=O)N1[C@@H](CO)[C@@H](c2ccccc2)C12CN(Cc1cc(F)ccc1F)C2	1.04 ± 0.031	
C[C@H](CO)N1C[C@H](C)[C@@H](CN(C)S(C)(=O)=O)Oc2ncc(-c3ccc(F)cc3)cc2C1=O	1.04 ± 0.074	
O=C(C1CCC1)N1C[C@@H]2[C@H](c3ccccc31)[C@@H](CO)N2C(=O)Nc1cccc(F)c1	1 ± 0.058	
O=C(C[C@H]1C=C[C@H](NC(=O)c2ccc3c(c2)OCO3)[C@H](CO)O1)NC1Cc2ccccc2C1	1 ± 0.1	
Cc1noc(C)c1NC(=O)N(C)C[C@@H]1OCc2ccccc2-c2c(n(C)c3ccccc23)C(=O)N([C@H](C)CO)C[C@H]1C	1.03 ± 0.087	
COc1ccc(S(=O)(=O)N2C[C@H](O)COC[C@H]3O[C@@H](CC(=O)N[C@H]4CCN(Cc5ccccc5)C4)CC[C@@H]32)cc1	1.02 ± 0.037	
CO[C@H]1CN(C)C(=O)c2cc(NC(=O)c3nc4ccccc4s3)ccc2OC[C@H](C)NC[C@H]1C	1.12 ± 0.012	

SMILES	viability index [1]	viability index (library set: Broad Institute Blood Stage)
O=C(CC1CC1)N1CC[C@@H]2[C@H](CO)Nc3ccc(-c4ccc(F)cc4)cc3[C@@H]21	1.11 ± 0.022	
C[C@H](CO)N1C[C@H](C)[C@@H](CN(C)C)Oc2ccc(NS(C)(=O)=O)cc2C1=O	1.04 ± 0.022	
Cc1nn(C)cc1NC(=O)C[C@H]1CC[C@H]2[C@@H](COc3ccc(NC(=O)C4CCOCC4)cc3C(=O)N2C)O1	1.07 ± 0.015	
C[C@@H]1CN([C@@H](C)CO)C(=O)c2cccc(NC(=O)c3nc4ccccc4s3)c2O[C@H]1CN(C)C(=O)Nc1ccc(C(F)(F)F)cc1		0.811 ± 0.058
O=C(C[C@@H]1CC[C@@H]2NC[C@H](O)COC[C@H]2O1)NCCN1CCCCC1	1.05 ± 0.019	
O=C(O)C[C@@H]1C[C@@H]2c3cc(NC(=O)Nc4ccc(C(F)(F)F)cc4)ccc3O[C@@H]2[C@H](CO)O1	1.11 ± 0.07	
COC(=O)C[C@@H]1C[C@H]2c3cc(NC(=O)c4ccc5c(c4)OCO5)ccc3O[C@H]2[C@H](CO)O1	1.01 ± 0.12	
N#C[C@@H]1[C@H](c2ccc(C#Cc3cccc(F)c3)cc2)[C@H](CO)N1C(=O)C1CCOCC1	1.07 ± 0.058	
CCCNC(=O)N1C[C@H]2[C@@H](c3ccccc31)[C@@H](CO)N2C(=O)Nc1ccccc1F	1.04 ± 0.031	
CCC(=O)N[C@@H]1CC[C@@H](CC(=O)NCc2ccccc2F)O[C@@H]1CO	1.09 ± 0.16	
C[C@@H]1CCCCO[C@H](CN(C)CC2CCCCC2)[C@@H](C)CN([C@H](C)CO)C(=O)c2cc(NS(C)(=O)=O)ccc2O1	1.11 ± 0.057	
CC(C)NC(=O)N1[C@H](CO)[C@@H](c2ccccc2)[C@H]1CN(C)C(=O)c1cccnc1	1.03 ± 0.048	
C[C@@H]1CN([C@@H](C)CO)C(=O)CCCn2nncc2CO[C@@H]1CN(C)C(=O)c1cc(-c2ccccc2)on1	0.975 ± 0.05	
COC(=O)C[C@H]1C[C@H]2c3cc(NC(=O)c4ccc5c(c4)OCO5)ccc3O[C@H]2[C@@H](CO)O1	1.041 ± 0.005	
CN1C(=O)c2cc(NC(=O)c3cscn3)ccc2OC[C@H]2O[C@H](CC(=O)N3CCOCC3)CC[C@H]21	1.15 ± 0.13	
COc1ccc(S(=O)(=O)Nc2ccc3c(c2)C(=O)N([C@@H](C)CO)C[C@H](C)[C@@H](CN(C)Cc2ccc(C(F)(F)F)cc2)OCCCC[C@H](C)O3)cc1	0.917 ± 0.11	
CO[C@H]1CN(C)C(=O)c2ccc(NC(=O)c3ccno3)cc2OC[C@@H](C)N(S(C)(=O)=O)C[C@@H]1C	1.089 ± 0.0036	
C[C@H]1CN([C@@H](C)CO)C(=O)c2ccccc2-c2ccccc2CO[C@H]1CN(C)Cc1ccc(Oc2ccccc2)cc1	0.867 ± 0.082	
Cc1ccc(S(=O)(=O)Nc2ccc3c(c2)CC(=O)N([C@@H](C)CO)C[C@H](C)[C@H](CN(C)S(=O)(=O)c2ccccc2)O3)cc1	0.912 ± 0.092	
O=C(Nc1ccc2c(c1)[C@@H]1C[C@H](CC(=O)N3CCCCC3)O[C@H](CO)[C@@H]1O2)NC1CCCCC1	1.05 ± 0.014	
CO[C@@H]1CN(C)C(=O)c2ccc(NC(=O)NC(C)C)cc2OC[C@@H](C)N(Cc2ccc(-c3ccccn3)cc2)C[C@H]1C	1.03 ± 0.023	
C/C=C/c1ccc2c(c1)[C@H]1[C@H](CCN1C(=O)c1ccc3c(c1)OCO3)[C@H](CO)N2	1.08 ± 0.089	
COCC(=O)Nc1ccc2c(c1)C(=O)N(C)C[C@H](OC)[C@H](C)CN(C(=O)c1ccncc1)[C@H](C)CO2	1.08 ± 0.062	
CC(=O)N1[C@H](CO)[C@@H](c2ccccc2)[C@@H]1CN(CC1CCC1)C(=O)CN(C)C	1.03 ± 0.034	

SMILES	viability index [1]	viability index (library set: Broad Institute Blood Stage)
CNC[C@H]1OCCCC[C@@H](C)Oc2ccc(NC(=O)Nc3ccc(OC)cc3)cc2C(=O)N([C@H](C)CO)C[C@@H]1C	1.06 ± 0.022	
COc1ccc2c3c([nH]c2c1)[C@H](CO)N(C[C@]31CCN(C)CC1)S(=O)(=O)c1ccccc1	1.06 ± 0.078	
CO[C@@H]1CC[C@@H]2CCN(C)C(=O)[C@@H](C)CN(C)C(=O)c3cc(C#N)ccc3OC[C@@H]1O2	0.92 ± 0.11	
CCCNC(=O)c1cc2c(c(-c3cccc(-c4ccc(F)cc4)c3)n1)[C@H](CCO)N([S@@](=O)C(C)(C)C)C2	1.001 ± 0.0012	
CN1CCN(C(=O)C[C@@H]2CC[C@@H]3[C@@H](COc4ccc(NC(=O)C5CCOCC5)cc4C(=O)N3C)O2)CC1	1.12 ± 0.043	
Cc1cccc(S(=O)(=O)N2CC[C@@H]3[C@H](CO)Nc4ccc(-c5ccccc5F)cc4[C@@H]32)c1	1.06 ± 0.03	
CCCNC(=O)N1C[C@@]2(C1)CN([C@@H](CO)c1[nH]c3cc(OC)ccc3c21)C(=O)Nc1ccc(F)cc1	0.986 ± 0.011	
C[C@H]1CCCCO[C@H](CN(C)Cc2ccc(C(F)(F)F)cc2)[C@@H](C)CN([C@@H](C)CO)C(=O)c2cc(NC(=O)Nc3cccc4ccccc34)ccc2O1	1.01 ± 0.059	
COc1ccc2c3c([nH]c2c1)[C@H](CO)N(C[C@]31CN(CC2CC2)C1)C(=O)CN(C)C	1.07 ± 0.032	
O=C1CNC[C@H]2[C@H](c3ccc(-c4ccccc4F)cc3)[C@H](CO)N12	1.03 ± 0.11	
CCS(=O)(=O)NCC[C@H]1CC[C@H](NS(=O)(=O)c2ccccc2C)[C@H](CO)O1	0.89 ± 0.031	
C/C=C/c1ccccc1[C@H]1[C@@H](CO)N(C(=O)Nc2ccc(OC)cc2)[C@H]1C#N	1.04 ± 0.039	
CCCNC(=O)N(C)C[C@@H]1Oc2cc(C#C[C@H](C)O)ccc2S(=O)(=O)N([C@@H](C)CO)C[C@H]1C	1.05 ± 0.043	
COCC(=O)N1CC(=O)N2[C@H](C1)[C@H](c1ccc(-c3ccccc3F)cc1)[C@@H]2CO	1.02 ± 0.013	
O=C(C[C@H]1CC[C@@H]2[C@H](COC[C@@H](O)CN2CCC(F)(F)F)O1)NCC1CC1	1.02 ± 0.1	
C[C@H]1CN([C@@H](C)CO)C(=O)c2cc(NC(=O)CCCN(C)C)ccc2O[C@@H]1CN(C)Cc1ccc(Cl)c(Cl)c1	1.01 ± 0.12	
CN(C)C(=O)C[C@H]1C[C@@H]2c3cc(NC(=O)c4cccnc4)ccc3O[C@@H]2[C@@H](CO)O1	1.07 ± 0.039	
Cc1cc(C(=O)Nc2ccc3c(c2)C(=O)N(C)[C@@H]2CC[C@H](CC(=O)NCc4ccc(-c5ccccc5)cc4)O[C@@H]2CO3)no1	1.09 ± 0.15	
C/C=C/c1ccc([C@@H]2[C@H](CO)N3C(=O)CN(S(=O)(=O)c4ccccc4)C[C@@H]23)cc1	0.977 ± 0.02	
COCC#Cc1ccc([C@@H]2[C@H](CO)N3C(=O)CN(C(=O)c4ccncc4)C[C@@H]23)cc1	1.11 ± 0.041	
C[C@@H]1CCCCO[C@H](CN(C)S(C)(=O)=O)[C@H](C)CN([C@@H](C)CO)C(=O)c2cc(NC(=O)NC3CCCCC3)ccc2O1	1.14 ± 0.17	
CN(C)C(=O)c1ccc(-c2ccc([C@@H]3[C@H]4CNC[C@@H]3N4CC3CCCCC3)cc2)cc1	1.067 ± 0.0056	
